Assay results as given in a compilation of properties of binary mixtures (doi:10.1021/je950194b).
The densities may have been worked out from excess volumes.

Test: xn = mol fraction of the nth substance listed
Conditions: 100 kPa

CCC(=O)O + C1CCCCC1
313.15 K
Conditions | mass density [kg/m3]
x1 = 0.0257 | 762.4
x1 = 0.0991 | 771.4
x1 = 0.3107 | 801.9
x1 = 0.376 | 812.9
x1 = 0.4285 | 822.2
x1 = 0.4573 | 827.7
x1 = 0.4944 | 834.8
x1 = 0.6412 | 866.3
x1 = 0.673 | 873.9
x1 = 0.7165 | 884.6
x1 = 0.8307 | 915.8
x1 = 0.9059 | 939
x1 = 0.9247 | 945.3
x2 = 0.0076 | 968.9

CCC(=O)O + C1CCOCC1
313.15 K
Conditions | mass density [kg/m3]
x1 = 0.0296 | 867
x1 = 0.3615 | 901.6
x1 = 0.3952 | 905.2
x1 = 0.482 | 914.5
x1 = 0.5345 | 920.2
x1 = 0.5992 | 927.2
x1 = 0.653 | 933.1
x1 = 0.6856 | 936.7
x1 = 0.7538 | 944.2
x1 = 0.8324 | 952.9
x1 = 0.9452 | 965.6

CCC(=O)O + C1COCCO1
313.15 K
Conditions | mass density [kg/m3]
x1 = 0.0237 | 1010.7
x1 = 0.0864 | 1009.7
x1 = 0.1655 | 1008.2
x1 = 0.2699 | 1006
x1 = 0.3544 | 1003.9
x1 = 0.409 | 1002.3
x1 = 0.4445 | 1001.2
x1 = 0.5396 | 998
x1 = 0.5697 | 996.9
x1 = 0.6632 | 993
x1 = 0.7335 | 989.6
x1 = 0.7945 | 986.2
x1 = 0.8857 | 980.5
x1 = 0.9233 | 977.8
x2 = 0.0123 | 972.7

CCC(=O)O + CCCCCCCC
298.15 K
Conditions | mass density [kg/m3]
x1 = 0.0382 | 690.9
x1 = 0.155 | 706.5
x1 = 0.2576 | 722.3
x1 = 0.413 | 751.2
x1 = 0.5608 | 785.8
x1 = 0.6551 | 813
x1 = 0.7525 | 846.4
x1 = 0.7937 | 862.6
x1 = 0.8363 | 881
x1 = 0.9358 | 931.6
x1 = 0.9631 | 947.8
x2 = 0.008 | 966.3

CCC(=O)O + Cc1cc(C)cc(C)c1
313.15 K
Conditions | mass density [kg/m3]
x1 = 0.039 | 851.2
x1 = 0.0956 | 854.8
x1 = 0.2007 | 862.1
x1 = 0.3474 | 873.9
x1 = 0.3961 | 878.3
x1 = 0.4527 | 883.8
x1 = 0.5695 | 896.6
x1 = 0.6164 | 902.3
x1 = 0.6504 | 906.8
x1 = 0.6807 | 911
x1 = 0.7281 | 917.9
x1 = 0.8219 | 933.4
x1 = 0.9578 | 961.3
